Assay results from the RNAGym collection of RNA variant scans (doi:10.7554/elife.90254).
The source gives no read counts; variants with many changes may rest on few reads.

B1: OR4K15 (parent)
chain: GUUAACGGUCAUAGGCCAUGGAAACUAGGAGCACCAUUUCGCUGCCAGUGAAGAAAUGAACAAAGAAAAUCUGGGCCAGGCAGGCAUCAAAAGAAAUAGUCUUGCGCUCAACCAGAAAGUCUGUAAUCAUUUUAAGGGUA

Variants of: B1
Assay: self-cleavage, relative activity (ratio to wild type); higher = more cleavage; in vitro, sequencing; the parent is a self-cleaving ribozyme

Variant | self-cleavage
GUUAACGGUCAUAGGCCAUGGAAACUAGGAGCACCAUUACGCUGCCAGUGAAGAAAUGAACAAAGUAGAUCUGGGCCAGGCAGGCAUCAAAAGAAAUAGUCUUGCGCUCAACCAGAAAGUCUGUAAUCAUUUUAAGGGUA | 1.27
GUUAACGGUCAUAGGCCAUGGAAACUAGGAGCACCAUUACGCUGCCAGUGAAGAAAUGAACAAAGUAAAUCUGGGCCAGGCAGGCAUCAAAAGAAAUAGUCUUGCGCUCAUCCAGAAGGUCUGUAAUCAUCUUAAGGGUA | 0.01
GUUAACGGUCAUAGGCCAUGGAAACUAGGAGCACCAUUACGCUGCCAGUGAAGAAAUGAACAAAGUAAAUCUGGGCCAGGCAGGCAUCAAAAGAAAUAGUCUUGCGCUCAACCAGAAGGUCUGUAAUCACUCUAAGGGUA | 0.32
GUUAACGGUCAUAGGCCAUGGAAACUAGGAGCACCAUUACGCUGCCAGUGAAGAAAUGAACAAAGUAAAUCUGGGCCAGGCAGGCAUCAAAAGAAAUAGUCUUGCGCUCAACAAGAAAGUCUGUGAUCAUUUUAAGGGUA | 0
GUUAACGGUCAUAGGCCAUGGAAACUAGGAGCACCAUUACGCUGCCAGUGAAGAAAUGAACAAAGAGGAUCUGGGCCAGGCAGGCAUCAAAAGAAAUAGUCUUGCGCCCAACCAGAAAGUCUGUAAUCAUUUUAAGGGUA | 0.03
GUUAACGGUCAUAGGCCAUGGAAACUAGGAGCACCAUUACGCUGCCAGUGAAGAAAUGAACAAAGAGAAUCUGGGCCAGGCAGGCAUCAAAAGAAAUAGUCUUGCGCUCAACCAGAGAGUCUGUAAUCAUUUUAAGGGUA | 2.62
GUUAACGGUCAUAGGCCAUGGAAACUAGGAGCACCAUUACGCUGCCAGUGAAGAAAUGAACAAAGAUAAUCUGGGCCAGGCAGGCAUCAAAAGAAAUAGUCUUGCGCUCAACCAGAAAGUCCGUAACCAUUUUAAGGGUA | 1.14
GUUAACGGUCAUAGGCCAUGGAAACUAGGAGCACCAUUACGCUGCCAGUGAAGAAAUGAACAAAGAAAUUCUGGGCCAGGCAGGCAUCAAAAGCUAUAGUCUUGCGCUCAACCAGAAAGUCUGUAAUCAUUUUAAGGGUA | 1.31
GUUAACGGUCAUAGGCCAUGGAAACUAGGAGCACCAUUACGCUGCCAGUGAAGAAAUGAACAAAGAAAAUCUGGGCCAGGCGGGCAUCAAAAGAAAUAGUCUUGCGCUCAACCAGAAAGUCUGUAAUCAUCUUAAGGGUA | 0.79
GUUAACGGUCAUAGGCCAUGGAAACUAGGAGCACCAUUACGCUGCCAGUGAAGAAAUGAACAAAGAAAAUCUGGGCCAGGCUGGCAUCAAAAGGAAUAGUCUUGCGCUCAACCAGAAAGUCUGUAAUCAUCUUAAGGGUA | 0.38
GUUAACGGUCAUAGGCCAUGGAAACUAGGAGCACCAUUACGCUGCCAGUGAAGAAAUGAACAAAGAAAAUCUGGGCCAGGCAGGCAUCAAUAGAAAUAGUCUUGCGCUAAACCAGAAAGUCUGUAGUCAUUUUAAGGGUA | 0.14
GUUAACGGUCAUAGGCCAUGGAAACUAGGAGCACCAUUACGCUGCCAGUGAAGAAAUGAACAAAGAAAAUCUGGGCCAGGCAGGCAUCAAAGGAAAUAGUCUUGCGCACUACCAGAAAGUCUGUAAUCAUUUUAAGGGUA | 0.01
GUUAACGGUCAUAGGCCAUGGAAACUAGGAGCACCAUUACGCUGCCAGUGAAGAAAUGAACAAAGAAAAUCUGGGCCAGGCAGGCAUCAAAAGAAGUAGUCUUGCGCUCAACCAGAAAGUCUGUAAUCAUCUUAAGGGUA | 1.08
GUUAACGGUCAUAGGCCAUGGAAACUAGGAGCACCAUUACGCUGCCAGUGAAGAAAUGAACAAAGAAAAUCUGGGCCAGGCAGGCAUCAAAAGAAAUAGUCUUGCGCUCAGCCAGAAAGUCUGUAAUCAUUUUAAGGUUA | 0.02
GUUAACGGUCAUAGGCCAUGGAAACUAGGAGCACCAUUACGCUGCCAGUGAAGAAAUGAACAAAGAAAAUCUGGGCCAGGCAGGCAUCAAAAGAAAUAGUCUUGCGCUCAGCCAGAAAGUCUGUAAUCAUCUUAAGGGUA | 0.01
GUUAACGGUCAUAGGCCAUGGAAACUAGGAGCACCAUUACGCUGCCAGUGAAGAAAUGAACAAAGAAAAUCUGGGCCAGGCAGGCAUCAAAAGAAAUAGUCUUGCGCUCAACCAGGAAGUCUGUAAUCAUUUUAAGGGCA | 0.19
GUUAACGGUCAUAGGCCAUGGAAACUAGGAGCACCAUUACGCUCCCAGUGAAGAGAUGAACAAAGAAAAUCUGGGCCAGGCAGGCAUCAAAAGAAAUAGUCUUGCGCUCAACCAGAAAGUCUGUAAUCAUUUUAAGGGUA | 1.67
GUUAACGGUCAUAGGCCAUGGAAACUAGGAGCACCAUUACGCUGCCAGUGAAGAAAUGAACAAAGAAAAUCUGGGCCAGGCAUGCAACAAAAGAAGUAGUCUCGCGCUCAACCAGAAAGUCUGUAAUCAUUUUAAGGGCA | 0.07
GUUAACGGUCAUAGGCCAUGGAAACUAGGAGCACCAUUACGCAGCCAGUGAAGAAAUGAACAAAGAAAAUCUGGGCCAGGCAGGCAUCAAGAGAAUUAGUCUUGCGCUCAGCCAGAAAGUCUGUAAUCAUUUUAAGGGUA | 0.03
GUUAACGGUCAUAGGCCAUGGAAACUAGGAGCACCAUUACGCAGCCAGUGAAGAAAUGAACAAAGAAAAUCUGGGCCAGGCAGGCAUCAAAAGAAAUAGUCUUGCGCUCCACCAGAAAGUCUGUAAUCAUUUUAAGGGUA | 0.31
GUUAACGGUCAUAGGCCAUGGAAACUAGGAGCACCAUUACGCAGCCAGGGAAGAAAUGAACAAAGAGAAUCUGGGCCAGGCAGGCAUCAAAAGAAAUAGUCUCGCGCUCAACCAGAAAGACAGUAAUCAUUUUAAGGGUA | 0.24

Variant | self-cleavage
GUUAACGGUCAUAGGCCAUGGAAACUAGGAGCACCAUUACGCCGCCAGUGAAGAAAUGAACAAAGAAAAUCUGGGCCAGGCAGGCAUCAAAAGAAAUAGUCUUGCGCUCAACCAGAAAGUCAGUAAUCAUUUUAAGGGUA | 2.25
GUUAACGGUCAUAGGCCAUGGAAACUAGGAGCACCAUUACGCUGCCAGUGAAGAAACGAGCGAAGGAAAUCUGGGCCAGGCAGGCAUCAAAAGAAGUAGUCUUGCGCUCAACCAGAAAGGCUGUAAUCAUUUUAAGGGUA | 0.11
GUUAACGGUCAUAGGCCAUGGAAACUAGGAGCACCAUUACGCUGCCAGUGAAGAAACGAACAGAGAAAAUCUAGGCCAGGCAGGCAUCAAAAGAAAUAGUCUUGCGCUCAGCCAGAAAGUCUGUAAUCAUUUUAAGGGUA | 0.02
GUUAACGGUCAUAGGCCAUGGAAACUAGGAGCACCAUUACGCUGCCAGUGAAGAAACGAACAAAGAAAAUCUGGGCCAGGCAGGCAUCAAAAGAAAUAGUCUUGCGCUCAACCAGAAAGUCAGUAAUCAUUUUAAGGGUA | 1.47
GUUAACGGUCAUAGGCCAUGGAAACUAGGAGCACCAUUACGCUGCCAGUGAAGAAAUGAACAAAGAAAACCUGGGCCAGGCAGGCAUCAAAAGAAAUAGUCUUGCGCUCAACCAGAGAGUCUGUAAUCACCUUAAGGGUA | 0.81
GUUAACGGUCAUAGGCCAUGGAAACUAGGAGCACCAUUACGCUGCCAGUGAAGAAAUGAACAAAGAAAACCUGGGCCAGGCAGGCACCAAAAGAAAUAGUCUUGCGCUCAACCAGAAAGUCUGUAAUCAUUUUAAGGGUA | 1.22
GUUAACGGUCAUAGGCCAUGGAAACUAGGAGCACCAUUACGCUGCCAGUGAAGAAAUGAACAAAGAAAAUCUGGGCCAGGCAGGCAACAAAAGAAAUAGUCUUGCGCUCAACCGGAAAGUCUGUAAUCAUUUUAAGGGUA | 0.71
GUUAACGGUCAUAGGCCAUGGAAACUAGGAGCACCAUUACGCUGCCAGUGAAGAAAUGAACAAAGAAAAUCUGGGCCAGGCAGGCAGCAAAAGAAACAGUCUUGCGCUCAACCGGAAAGACUGUAAUCAUUUUAAGGGUA | 0.03
GUUAACGGUCAUAGGCCAUGGAAACUAGGAGCACCAUUACGCUGCCAGUGAAGAAAUGAACAAAGAAAAUCUGGGCCAGGCAGGCAUCAAAAGAAAUAGACUUGCGCUCAACCAGAAUGUCUGUAAUCAUUUUAAGGGUA | 0.28
GUUAACGGUCAUAGGCCAUGGAAACUAGGAGCACCAUUACGCUGCCAGUGAAGAAAUGAACAAAGAAAAUCUGGGCCAGGCAGGCAUCAAAAGAAAUAGCCUUGCGCUCAACCUGAAAGUCUGUAAUCAUUUUAAGGGUA | 0.13
GUUAACGGUCAUAGGCCAUGGAAACUAGGAGCACCAUUACGCUGCCAGUGAAGAAAUGAACAAAGAAAAUCUGGGCCAGGCAGGCAUCAAAAGAAAUAGUCUUGCGCCCAACCAGAAAGUCUGUAUUCAUUUUAAGGGUA | 0.03
GUUAACGGUCAUAGGCCAUGGAAACUAGGAGCACCAUUACGCUGCCAGUGAAGAAAUGAACAAAGAAAAUCUGGGCCAGGCAGGCAUCAAAAGAAAUAGUCUUGCGCUCAACCAGAAAGUCCGUAAUCAUUUUAAGGGAA | 1.35
GUUAACGGUCAUAGGCCAUGGAAACUAGGAGCACCAUUCCGCUGCCGGUGAAGUAAUGAACAAAGAAAAUCUGGGCCAGGCAGGCAUCAAAAGAAAUAGUCUUGCGCUCAACCAGAAAGUCUGUAAUCAUUUUAAGGGUA | 1.4
GUUAACGGUCAUAGGCCAUGGAAACUAGGAGCACCAUUCCGCUGCCGGUGAAGAAAUGAACAAGGAAAAUCUGGGCCAGGCAGGCAUCAAAAGAAAUAGUCUUGCGCUCAACCAGAAAGUCUGUAAUCAUUUUAAGGGUA | 1.39
GUUAACGGUCAUAGGCCAUGGAAACUAGGAGCACCAUUCCGCUGCCGGUGAAGAAAUGAACAAAGAAAACCUGGGCCAGGCAGGCAUCAAAAGAAAUAGUCUUGCGCUCAACCAGAAAGUCUGUAAUCAUUUUAAGGGUA | 0.46
GUUAACGGUCAUAGGCCAUGGAAACUAGGAGCACCAUUCCGCUGCCUGUGAAGAAAUGAACAAAGAAAAUCUGGGCCAGGCAGGCAUCAAAAGAGAUAGUCUUGCGCUCAACCAGAAAGUCCGUAAUCAUUUUAAGGGUA | 1.45
GUUAACGGUCAUAGGCCAUGGAAACUAGGAGCACCAUUCCGCUGCCAGUGGAGACAUGAACAAAGAAAAUCUGGGCCAGGCAGGCAUCAAAAGAAAUUGUCUUGCGCUCAUCCAGAAAGUCUGUAAUCAUUUUAAGGGUA | 0.12
GUUAACGGUCAUAGGCCAUGGAAACUAGGAGCACCAUUCCGCUGCCAGUGGAGAAAUGAACAAAGAAGAUCUGGGCCAGGCAGGCAUCAAAAGAAAUAGUCUUGCGCUCAACCGGAAAGUCUGUAAUCAUUUUAAGGGUA | 1.01
GUUAACGGUCAUAGGCCAUGGAAACUAGGAGCACCAUUCCGCUGCCAGUGGAGAAAUGAACAAAGAAAAUCUGGGCCAGGCAGGCAUCAAAAGAAAUAGUCUUGCGCUCAACCAGAAAGUCUGUAAUCAUUUUAGGGGUA | 0.8
GUUAACGGUCAUAGGCCAUGGAAACUAGGAGCACCAUUCCGCUGCCAGUGGAGAAAUAAACAAAGAAAAUCUGGGCCAGGCAGGCAUCAAAAGAAAUAGUCUUGCGCUCAACCAGAAAGUCUGUAAUCAUUUUAAGGGUA | 0.76
